According to PubChem BioAssay AID624418 (National Center for Advancing Translational Sciences (NCATS), 2012):
About 530 (0.13%) of roughly 410,000 compounds were called active. This list was built around the results that the source calls inconclusive (neither active nor inactive); the mix of calls is not that of the screen. Calls follow the shape of the dose curve; as a rule, active = well fitted inhibition curve with a large enough effect; inconclusive = small, poorly fitted or top-dose-only effect, or another doubt; inactive = no such curve, though single readings can be large or run the other way. Potencies of inconclusive entries are doubtful fits and often do not repeat.

Assay: qHTS of GLP-1 Receptor Inverse Agonists: Cytotox Screen
Conditions: HEK293 cAMP-luciferase reporter cells, luminescence, 24 h; activity change, negative = inhibition: at 38.3 µM (top of the series)
Procedure, shortened: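 A 23 nL compound transfer followed 12 hours of cell culture at 37 deg C; exposure then lasted 24 hr. Luciferase assay detection reagent was dispensed and plates read for luminescence after a 12 min room-temperature wait.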
% is scaled to controls: 0 for no effect and ±100 for the full control effect; potency is read from the fitted curve at half-maximal effect.

Structure (SMILES) | Potency | activity change, negative = inhibition
CC(C)c1csc(CN2CCC(CO)(Cc3ccccc3)CC2)n1 | inconclusive: 10 µM [inhibitor, partial curve, poor fit] | –
CC(C)C[C@H](NC(=O)[C@@H]1Cc2ccccc2CN1C(=O)OC(C)(C)C)C(=O)NCC1CCC(C(=O)O)CC1 (stereo partly drawn) | inactive | –
O=C1SCCN1N=Cc1ccc([N+](=O)[O-])o1 | inactive | –
O=C(Cn1nnc(-c2ccccc2NC(=O)c2ccccc2F)n1)NCc1ccco1 | – | inconclusive: -30.6% [inhibitor]
O=[N+]([O-])c1ccc(S(=O)Cc2ccccc2)c([N+](=O)[O-])c1 (stereo not drawn) | inconclusive: 6.31 µM [inhibitor, partial curve, poor fit] | –
CCc1nnc(NC(=O)CSc2nc3c([nH]c4ccccc43)c(=O)n2-c2ccc(Cl)cc2)s1 | inactive | –
O=C(Cc1ccccc1F)Nc1ccc2c(c1)CCC2 | inconclusive: 28.2 µM [inhibitor, single point] | –
CN(c1ccccc1)S(=O)(=O)c1cccc(NC(=O)C2=NNC(=O)CC2)c1 | inconclusive: 10 µM [inhibitor, partial curve, poor fit] | –
CCS(=O)(=O)N1Cc2ccccc2CC1C(=O)OCC(=O)Nc1ccc(SC(F)F)cc1 (stereo not drawn) | inactive | –
CN(CCOc1ccccc1)C(=O)c1ccc2c(c1)OCO2 | inconclusive: 2.82 µM [inhibitor, full curve] | –
CCOC(=O)c1c(CN2CCN(CCO)CC2)n(-c2ccccc2)c2cc(Br)c(O)cc12 | inconclusive: 11.2 µM [inhibitor, single point] | –
Cc1cc(SC#N)cc(C)c1NC(=O)CCl | inconclusive: 4.47 µM [inhibitor, partial curve, poor fit] | –
C=C(C)[C@@H]1CC=C(CN2CCC(N3CCC(C(=O)N4CCCC4)CC3)CC2)CC1 | inconclusive: 28.2 µM [inhibitor, single point] | –
CCOc1ccc(/C=C(\C#N)C(=O)c2c(C)[nH]c3ccccc23)cc1OC | inactive | –
CN(CC(=O)Nc1cccc(F)c1)C(=O)c1cn(-c2ccccc2)nc1-c1ccccc1 | inactive | –
CC(=O)O[C@H]1[C@H](O)[C@H](Oc2c(O)c(C)c3c4c2[C@@H](C)CC[C@@H]4[C@@H](C)C[C@H]3C=C(C)C)O[C@@H](C)[C@H]1O | inconclusive: 28.2 µM [inhibitor, single point] | –
COc1cccc(NC(=O)Nc2ccc3c(c2)N(C)C(=O)c2ccccc2S3)c1 | inconclusive: 22.4 µM [inhibitor, single point] | –
CCN(CC(O)Cn1c2ccccc2c2ccccc21)S(=O)(=O)c1ccc(C)cc1 (stereo not drawn) | inconclusive: 12.6 µM [inhibitor, single point] | –
COc1ccc(CNC(=O)C2(c3ccc(Cl)cc3)CC2)cc1 | inactive | –
CC(C)(C)c1ccc(C(=O)Nc2ccc(-c3nc4ccccc4o3)c(O)c2)cc1 | inactive | –
CC(C)(C)c1csc(NC(=O)c2ccccc2O)n1 | inconclusive: 28.2 µM [inhibitor, partial curve, poor fit] | –
CCCCOC(=S)NC(=O)c1sc2ccccc2c1Cl | inconclusive: 28.2 µM [inhibitor, single point] | –

Structure (SMILES) | Potency | activity change, negative = inhibition
COc1ccc(-c2csc3ncnc(NCCCO)c23)cc1 | inactive | –
Clc1ccc(Cn2cc(/C=N/n3cnnc3)c3ccccc32)c(Cl)c1 | inconclusive: 22.4 µM [inhibitor, single point] | –
CN(C)c1ccc(CN2CCC(C(=O)NC(c3ccc(F)cc3)c3ccc4ccccc4n3)CC2)cc1 (stereo not drawn) | inconclusive: 28.2 µM [inhibitor, single point] | –
CC(C)C[C@@H](CN1CCC[C@@H]1CN1C(=S)NC[C@@H]1Cc1ccc(O)cc1)N1C[C@H](Cc2ccc(O)cc2)N(CCc2ccccc2)C1=S | inconclusive: 11.2 µM [inhibitor, single point] | –
CCOc1cccc2sc(N(CCCN(C)C)C(=O)c3ccc(S(=O)(=O)N(CC)Cc4ccccc4)cc3)nc12 | inconclusive: 28.2 µM [inhibitor, single point] | –
O=C(c1ccc(Cl)cc1)n1nc(-c2cccnc2)nc1NCc1ccc(F)cc1 | inactive | –
COc1ccc(-c2csc(N3CCC(c4ccccc4)C3)n2)cc1 (stereo not drawn) | inactive | –
COc1ccccc1S(=O)(=O)Nc1ccc(-c2nnc3n2CCCCC3)cc1 | inactive | –
COc1c(Cl)cc(Cl)cc1C(=O)Nc1cccc(-c2nc3ccccc3o2)c1C | inactive | –
CCOc1cc(NC(=O)CCl)c(OCC)cc1NC(=O)CCl | inconclusive: 3.55 µM [inhibitor, partial curve, poor fit] | –
Cc1csc(C(C)NC(=O)c2ccc(OC3CCN(CCc4ccccc4)CC3)cc2)n1 (stereo not drawn) | inconclusive: 22.4 µM [inhibitor, single point] | –
O=C(COC(=O)C1CCC1)NCc1ccccc1Cl | inactive | –
Cc1c2cnn(-c3ccccc3)c(=O)c2c(C)n1C(C)C(=O)Nc1ccccc1C(F)(F)F (stereo not drawn) | inactive | –
CCCC(c1nnnn1C(C)(C)CC)N(Cc1ccco1)Cc1cc2ccc(OC)cc2[nH]c1=O (stereo not drawn) | inconclusive: 15.8 µM [inhibitor, single point] | –
O=C(COc1ccc2ccccc2c1CN1CCOCC1)N1CCc2ccccc21 | inconclusive: 28.2 µM [inhibitor, single point] | –
CC1CC(C)CN(CCCNC(=O)c2cc3c(=O)[nH]c4ccccc4c3n2C)C1 (stereo not drawn) | inconclusive: 22.4 µM [inhibitor, single point] | –
CCOC(=O)c1[nH]c(=O)[nH]c1CSc1nc(C)cc(C)n1 | inconclusive: 28.2 µM [inhibitor, single point] | –
Cc1cccc2sc(N(CCCN(C)C)C(=O)CCc3ccccc3)nc12 | inconclusive: 28.2 µM [inhibitor, single point] | –
CCCC(=O)Nc1ccccc1NC(=O)c1ccc(OCC)cc1 | inactive | –
O=C(Oc1cccc(C(=S)N2CCOCC2)c1)c1cccc([N+](=O)[O-])c1 | inconclusive: 22.4 µM [inhibitor, single point] | –
COc1cccc(C(=O)Nc2ccc(N3CCN(C(=O)c4cccs4)CC3)cc2)c1 | inconclusive: 8.91 µM [inhibitor, partial curve, poor fit] | –
